# Assay results reported in the supplement of paper PMC8728848.
# Some of the results follow.
# B1: AFL5 (Aspergillus fumigatus), Q4WB00 (protein)
# chain: MDNFMEMTKKLGHQPELLRLRALDATYDDALEGKLVVAPLDMSEPGKKILDSGTADGTWLRNVRSKQSVPHDYYGSDVEGELFPKDPDGITYFAHSFKDPWPQQYLGFFDLVHIRGSLAGSAPEGPAPVIQNLTTLLKPGGWVQLMEMNAFSPPPNGPAMTDFAKMASEMFTGIGVGDFANNNKSMLEDAGLKNVQEKRVIVNLGKKAKPELHDQSIHGVTGPIVPLTSVARTVKSSFTGEQLDALPARVKEELETEGGQVEMIIAFGQKA
# Tests used:
# Experiment in all cases: glycan array binding signal (z-score within array); higher = stronger binding
# Conditions in all cases: glycan notation: IUPAC condensed, linker removed
# Fuc(a1-2)Gal = target: Fuc(a1-2)Gal
# Outline: (§1)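 The binding signal is a Z-score computed within each array. Data were drawn from 3228 arrays in the Consortium for Functional Glycomics database, restricted to those with a known protein sequence. Scores were averaged over arrays of the same protein sequence at different concentrations or buffers, and over linkers, and negative values can be taken as non-binding.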
# Fuc(a1-2)Gal(b1-3)GalNAc = target: Fuc(a1-2)Gal(b1-3)GalNAc
# Outline: as §1
# [1] = target: Fuc(a1-2)Gal(b1-3)GalNAc(a1-3)[Fuc(a1-2)]Gal(b1-4)Glc
# Outline: as §1
# [2] = target: Fuc(a1-2)Gal(b1-3)GalNAc(a1-3)[Fuc(a1-2)]Gal(b1-4)GlcNAc
# Outline: as §1
# [3] = target: Fuc(a1-2)Gal(b1-3)GalNAc(b1-3)Gal
# Outline: as §1
# [4] = target: Fuc(a1-2)Gal(b1-3)GalNAc(b1-3)Gal(a1-4)Gal(b1-4)Glc
# Outline: as §1
# [5] = target: Fuc(a1-2)Gal(b1-3)GalNAc(b1-4)[Neu5Ac(a2-3)]Gal(b1-4)Glc
# Outline: as §1
# Fuc(a1-2)Gal(b1-3)GlcNAc = target: Fuc(a1-2)Gal(b1-3)GlcNAc
# Outline: as §1
# [6] = target: Fuc(a1-2)Gal(b1-3)GlcNAc(b1-2)Man(a1-3)[Fuc(a1-2)Gal(b1-3)GlcNAc(b1-2)Man(a1-6)]Man(b1-4)GlcNAc(b1-4)GlcNAc
# Outline: as §1
# [7] = target: Fuc(a1-2)Gal(b1-3)GlcNAc(b1-2)Man(a1-3)[Fuc(a1-2)Gal(b1-3)GlcNAc(b1-2)Man(a1-6)]Man(b1-4)GlcNAc(b1-4)[Fuc(a1-6)]GlcNAc
# Outline: as §1
# [8] = target: Fuc(a1-2)Gal(b1-3)GlcNAc(b1-3)Gal(b1-4)Glc
# Outline: as §1
# [9] = target: Fuc(a1-2)Gal(b1-3)GlcNAc(b1-3)GalNAc
# Outline: as §1
# [10] = target: Fuc(a1-2)Gal(b1-3)GlcNAc(b1-3)[Fuc(a1-2)Gal(b1-3)GlcNAc(b1-6)]GalNAc
# Outline: as §1
# [11] = target: Fuc(a1-2)Gal(b1-3)GlcNAc(b1-3)[Gal(b1-4)GlcNAc(b1-6)]Gal(b1-4)Glc
# Outline: as §1
# [12] = target: Fuc(a1-2)Gal(b1-3)GlcNAc(b1-3)[Neu5Ac(a2-6)Gal(b1-4)GlcNAc(b1-6)]Gal(b1-4)Glc
# Outline: as §1
# [13] = target: Fuc(a1-2)Gal(b1-3)GlcNAc6S
# Outline: as §1
# [14] = target: Fuc(a1-2)Gal(b1-3)[Fuc(a1-4)]GlcNAc
# Outline: as §1
# [15] = target: Fuc(a1-2)Gal(b1-3)[Fuc(a1-4)]GlcNAc(b1-2)Man(a1-3)[Fuc(a1-2)Gal(b1-3)[Fuc(a1-4)]GlcNAc(b1-2)Man(a1-3)]Man(b1-4)GlcNAc(b1-4)GlcNAc
# Outline: as §1
# [16] = target: Fuc(a1-2)Gal(b1-3)[Fuc(a1-4)]GlcNAc(b1-2)Man(a1-3)[Fuc(a1-2)Gal(b1-3)[Fuc(a1-4)]GlcNAc(b1-2)Man(a1-6)]Man(b1-4)GlcNAc(b1-4)[Fuc(a1-6)]GlcNAc(b1-4)[Fuc(a1-6)]GlcNAc
# Outline: as §1
# [17] = target: Fuc(a1-2)Gal(b1-3)[Fuc(a1-4)]GlcNAc(b1-3)[Fuc(a1-3)[Gal(b1-4)]GlcNAc(b1-6)]Gal(b1-4)Glc
# Outline: as §1
# [18] = target: Fuc(a1-2)Gal(b1-3)[Fuc(a1-4)]GlcNAc(b1-3)[Gal(b1-4)GlcNAc(b1-6)]Gal(b1-4)Glc
# Outline: as §1
# [19] = target: Fuc(a1-2)Gal(b1-4)Fuc(a1-3)]GlcNAc(b1-2)Man(a1-3)[Fuc(a1-2)Gal(b1-4)[Fuc(a1-3)]GlcNAc(b1-2)Man(a1-6)]Man(b1-4)GlcNAc(b1-4)GlcNAc
# Outline: as §1
# Fuc(a1-2)Gal(b1-4)Glc = target: Fuc(a1-2)Gal(b1-4)Glc
# Outline: as §1
# Fuc(a1-2)Gal(b1-4)Glc6S = target: Fuc(a1-2)Gal(b1-4)Glc6S
# Outline: as §1
# Fuc(a1-2)Gal(b1-4)GlcNAc = target: Fuc(a1-2)Gal(b1-4)GlcNAc
# Outline: as §1
# [20] = target: Fuc(a1-2)Gal(b1-4)GlcNAc(b1-2)Man
# Outline: as §1
# [21] = target: Fuc(a1-2)Gal(b1-4)GlcNAc(b1-2)Man(a1-3)[Fuc(a1-2)Gal(b1-4)GlcNAc(b1-2)Man(a1-6)]Man(b1-4)GlcNAc(b1-4)GlcNAc
# Outline: as §1
# [22] = target: Fuc(a1-2)Gal(b1-4)GlcNAc(b1-2)Man(a1-3)[Fuc(a1-2)Gal(b1-4)GlcNAc(b1-2)Man(a1-6)]Man(b1-4)GlcNAc(b1-4)[Fuc(a1-6)]GlcNAc
# Outline: as §1
# [23] = target: Fuc(a1-2)Gal(b1-4)GlcNAc(b1-2)[Fuc(a1-2)Gal(b1-4)GlcNAc(b1-4)]Man(a1-3)[Fuc(a1-2)Gal(b1-4)GlcNAc(b1-2)Man(a1-6)]Man(b1-4)GlcNAc(b1-4)GlcNAc
# Outline: as §1
# [24] = target: Fuc(a1-2)Gal(b1-4)GlcNAc(b1-3)Gal(b1-4)GlcNAc
# Outline: as §1
binder,measurement,setting,value
B1,glycan array binding signal (z-score),Fuc(a1-2)Gal,0.294
same,glycan array binding signal (z-score),Fuc(a1-2)Gal(b1-3)GalNAc,-0.109
same,glycan array binding signal (z-score),[1],-0.099
same,glycan array binding signal (z-score),[2],0.124
same,glycan array binding signal (z-score),[3],-0.27
same,glycan array binding signal (z-score),[4],-0.338
same,glycan array binding signal (z-score),[5],-0.127
same,glycan array binding signal (z-score),Fuc(a1-2)Gal(b1-3)GlcNAc,-0.181
same,glycan array binding signal (z-score),[6],0.487
same,glycan array binding signal (z-score),[7],-0.008
same,glycan array binding signal (z-score),[8],-0.217
same,glycan array binding signal (z-score),[9],-0.31
same,glycan array binding signal (z-score),[10],-0.55
same,glycan array binding signal (z-score),[11],0.163
same,glycan array binding signal (z-score),[12],-0.441
same,glycan array binding signal (z-score),[13],-0.232
same,glycan array binding signal (z-score),[14],-0.036
same,glycan array binding signal (z-score),[15],0.527
same,glycan array binding signal (z-score),[16],-0.382
same,glycan array binding signal (z-score),[17],-0.34
same,glycan array binding signal (z-score),[18],-0.067
same,glycan array binding signal (z-score),[19],0.109
same,glycan array binding signal (z-score),Fuc(a1-2)Gal(b1-4)Glc,-0.439
same,glycan array binding signal (z-score),Fuc(a1-2)Gal(b1-4)Glc6S,0.122
same,glycan array binding signal (z-score),Fuc(a1-2)Gal(b1-4)GlcNAc,-0.379
same,glycan array binding signal (z-score),[20],0.42
same,glycan array binding signal (z-score),[21],-0.083
same,glycan array binding signal (z-score),[22],0.254
same,glycan array binding signal (z-score),[23],-0.16
same,glycan array binding signal (z-score),[24],-0.689
